B1: tRNA (parent)
chain: CUCUCGGUAGCCAAGUUGGUUUAAGGCGCAAGACUUUAAUUUAUCACUACGAAAUCUUGAGAUCGGGCGUUCGACUCGCCCCCGGGAGAUUUUUUCCUCGAGCAA

Experimental findings from the RNAGym collection of RNA variant scans (doi:10.1101/gad.245936.114) are described below.

This sample is rich in variants without activity.

Variants of B1 are the subject of this series. As to the kind of experiment: nonsense suppression (GFP-seq) (ratio to wild type); higher = more function; SUP4oc tRNA, yeast GFP reporter sort-seq. In short, it runs like this:
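Yeast were grown in raffinose/galactose medium with 80 mg/L adenine, each strain bearing a genome-integrated ochre-suppressor tRNA variant from a ~3% random-mutation library, a galactose-driven GFP ochre reporter, and RFP. After sorting into GFP/RFP bins, every bin was sequenced on an Illumina platform at phred ≥30. The GFPSEQ value, a measure of nonsense suppression, is the weighted bin median GFP/RFP relative to the unmutated parent tRNA, using each variant's estimated cell share per bin as the weight. Only variants with ≥100 reads and ≥30 cells were included.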
As to U2G G19C U22C C68A, the nonsense suppression was at most 0.026.
Regarding A9U A13C U57C C68G A87G, the nonsense suppression is at most 0.026.
The figure for G59A C77U G78C is at most 0.026.
Regarding U22C A62G G73A A87U, the nonsense suppression was at most 0.026.
Consider A14G U21G C29U A30U C34A, for which the nonsense suppression is at most 0.026.
As to G26U U35A A62C U63C, the nonsense suppression was at most 0.026.
The figure for A31U A60C C75A is 0.184; for C82A A87U it is at most 0.026; for G10A C77G A87C it is at most 0.026.
The figure for C11A C12A U17G U22G G66A U76C A89C is at most 0.026; for A60C C80A it is at most 0.026.
For C1G U8A C29U A62G U76G, the nonsense suppression is at most 0.026.
Consider A31U C34U U76C, for which the nonsense suppression was at most 0.026.
Regarding C1A U2A U35C U70A, the nonsense suppression was at most 0.026.
The value for U55A A89C was at most 0.026.
The figure for C11G U71G is at most 0.026; for C3A U63G U70G it is at most 0.026; for A24G G26A it is at most 0.026.
C1G A54U C56A C72U: the nonsense suppression was at most 0.026.
The value for A13C C34U was at most 0.026.
In the case of A30U G65C, the nonsense suppression is at most 0.026.
Turning to C11G C75G, the nonsense suppression is at most 0.026.
The figure for U16G U22C C64G U71A is at most 0.026; for A74C U76C G86A A89G it is at most 0.026; for G7C U21C C29U U57A it is at most 0.026.
In the case of A31C U57C, the nonsense suppression was at most 0.026.
As for U4G A30U, the nonsense suppression is 0.0386.
Take A33U G88U: the nonsense suppression was at most 0.026.
As for C1A C5A U16C, the nonsense suppression is at most 0.026.
With A24C G78A, the nonsense suppression worked out at 0.112.
With A9G G15A U16A A62C U70G A74C G85U, the nonsense suppression was at most 0.026.
For the variant G10U G19A C68G, the nonsense suppression is at most 0.026.
The figure for G25U C27U A33G is at most 0.026.
The value for C1A A14G U71A was at most 0.026; that for U20G A24U U55C U57G was at most 0.026.
With A14G U16C G25C A54U A60G G65C, the nonsense suppression is at most 0.026.
For A9G A23G U70G A89G, the nonsense suppression was at most 0.026.
For A9U G85A A89C, the nonsense suppression is at most 0.026.
The value for A24C G66A was at most 0.026; that for C3U U8G G15U U55C A60C A62G was at most 0.026.
The value for U55C G59C A60C C80A G84A A87C was at most 0.026.
As to G25U A30G U57A A74C, the nonsense suppression was at most 0.026.
Consider C77A G88A, for which the nonsense suppression is at most 0.026.
As to U8C C64A U70C, the nonsense suppression is at most 0.026.
For A14U U55C G78A, the nonsense suppression was at most 0.026.
On to C3U A13U C27A, for which the nonsense suppression is at most 0.026.
The value for U57C G78U C80A was at most 0.026; that for U16C C79A was at most 0.026; that for C29U C68U A89U was at most 0.026.
As for A9G G88C, the nonsense suppression is at most 0.026.
For the variant A14G C29U G78A, the nonsense suppression was at most 0.026.
Consider G7C G18U G69C C83G, for which the nonsense suppression was at most 0.026.
As for U20G G59U G78C, the nonsense suppression was at most 0.026.
The figure for G25A G86C is at most 0.026; for C1U C29G U70C it is at most 0.026.
As to A24U U70C, the nonsense suppression was at most 0.026.
For U20G C27G, the nonsense suppression is at most 0.026.
Regarding A14G G26U U57C G78U, the nonsense suppression was at most 0.026.
Take G85C G86C: the nonsense suppression was at most 0.026.
On to U55A C56U A62U A74C C75A A89U, for which the nonsense suppression is at most 0.026.
As to G19A C79U, the nonsense suppression is at most 0.026.
With U55C U63A, the nonsense suppression was found to be 0.244.
The value for C11G A62U G88A was at most 0.026; that for C3U C12A C79A G85U was at most 0.026; that for U20G C81G was at most 0.026.
Take C1A U17C: the nonsense suppression is at most 0.026.
Turning to C12A U17A C27A A31U, the nonsense suppression was at most 0.026.
The figure for A23C U57G is at most 0.026; for U4C A33C G59U G88U it is at most 0.026.
For G25C C80G G84A, the nonsense suppression is at most 0.026.
As for C1G C12A A24U, the nonsense suppression was at most 0.026.
Consider U55G C56A G67C U76A C79G, for which the nonsense suppression was at most 0.026.
Consider U76C G88U A89G, for which the nonsense suppression was at most 0.026.
Turning to U17C U63C G86U, the nonsense suppression was at most 0.026.
Regarding U17A A30G C82A, the nonsense suppression was at most 0.026.
Regarding C1G G10A G19C G65C A74C, the nonsense suppression is at most 0.026.
C5G C27U A62C U76G: the nonsense suppression is at most 0.026.
For U2G G15U C68U, the nonsense suppression was at most 0.026.
The value for U20A A24C was 0.192; that for A24U A30U A62C was at most 0.026; that for U8C A87G G88A was at most 0.026.
As for A13C G18U C81A, the nonsense suppression is at most 0.026.
As for G61C G67C C79U G85A, the nonsense suppression was at most 0.026.
The value for U2G A31G A33G U57A G66A was at most 0.026.
